Source: PubChem BioAssay AID504332 (National Center for Advancing Translational Sciences (NCATS), 2011)
About 31,000 (8.9%) of roughly 350,000 compounds were called active. Inconclusive means that the source gave no clear call. Such entries were picked first, then a sample of the others. The call rests on the fitted dose curve; in most records, active means well fitted inhibition curve with a large enough effect; inconclusive means small, poorly fitted or top-dose-only effect; inactive means no such curve, though single readings can be large or run the other way. Potencies beside an inconclusive call are fits to weak or partial responses and may not hold up.

target: Histone-lysine N-methyltransferase EHMT2 (Homo sapiens) (UniProt Q96KQ7); test: qHTS Assay for Inhibitors of Histone Lysine Methyltransferase G9a; details: G9a H3K9 monomethylation, AlphaScreen, 2 h; activity, negative = inhibition: at 59 µM (top of the series) unless noted; further: nearly all actives have a fitted effect of over 75% in size
UniProt Q96KQ7, sequence (Q96KQ7 whole entry, looked up): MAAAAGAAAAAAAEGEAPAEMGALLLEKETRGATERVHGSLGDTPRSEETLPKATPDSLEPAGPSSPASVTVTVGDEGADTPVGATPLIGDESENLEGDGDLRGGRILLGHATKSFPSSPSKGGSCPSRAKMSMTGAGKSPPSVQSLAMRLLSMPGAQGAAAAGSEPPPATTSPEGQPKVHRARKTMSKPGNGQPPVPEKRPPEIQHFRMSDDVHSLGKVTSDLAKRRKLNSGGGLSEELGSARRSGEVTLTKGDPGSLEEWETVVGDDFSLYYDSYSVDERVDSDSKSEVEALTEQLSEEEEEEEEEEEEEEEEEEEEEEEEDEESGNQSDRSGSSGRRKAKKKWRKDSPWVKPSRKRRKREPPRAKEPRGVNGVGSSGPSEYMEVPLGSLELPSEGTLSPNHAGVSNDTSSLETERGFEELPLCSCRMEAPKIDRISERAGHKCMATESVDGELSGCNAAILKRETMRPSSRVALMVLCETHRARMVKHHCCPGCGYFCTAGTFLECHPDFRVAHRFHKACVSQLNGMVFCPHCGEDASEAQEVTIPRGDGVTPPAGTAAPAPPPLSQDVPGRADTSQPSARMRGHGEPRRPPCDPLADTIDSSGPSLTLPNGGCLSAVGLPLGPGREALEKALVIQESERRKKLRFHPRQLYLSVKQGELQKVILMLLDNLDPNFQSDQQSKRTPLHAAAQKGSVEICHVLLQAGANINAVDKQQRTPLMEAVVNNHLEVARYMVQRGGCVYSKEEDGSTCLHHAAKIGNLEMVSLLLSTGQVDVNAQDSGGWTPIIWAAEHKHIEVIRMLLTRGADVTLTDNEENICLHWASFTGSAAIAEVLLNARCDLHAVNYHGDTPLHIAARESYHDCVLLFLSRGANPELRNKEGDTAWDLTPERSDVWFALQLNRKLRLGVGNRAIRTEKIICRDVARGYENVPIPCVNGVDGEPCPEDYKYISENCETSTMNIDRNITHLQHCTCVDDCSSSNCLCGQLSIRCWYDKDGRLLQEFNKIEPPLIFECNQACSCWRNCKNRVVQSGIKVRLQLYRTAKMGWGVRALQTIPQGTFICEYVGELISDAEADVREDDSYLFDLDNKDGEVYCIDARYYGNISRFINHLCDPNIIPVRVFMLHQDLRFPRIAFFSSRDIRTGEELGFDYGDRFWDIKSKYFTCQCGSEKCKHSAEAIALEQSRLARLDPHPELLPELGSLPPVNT
Summary of the method: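 Signal arises when biotinylated H3K9 peptide, once monomethylated, bridges streptavidin donor and antibody-captured acceptor beads. Enzyme at 20 nM was preincubated 15 min with test compounds; peptide 500 nM and SAM 20 uM then reacted for 2 h.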
On the % scale 0 is the no-effect control and ±100 the full control effect; potency means the concentration at half of the fitted maximal effect; tags describe the fitted curve by direction and shape.

Compound | activity, negative = inhibition | Potency
COc1ccccc1C(=O)Nc1ccccc1SCc1cc(=O)c2ccccc2[nH]1 | inactive: -20.9% | –
O=c1c(-c2cccs2)nc2cnc(N3CCNCC3)nc2n1C1CC1 | inactive: 4.86% [at 0.501 µM] | –
CN(CC(=O)O)Cc1nc2ccccc2[nH]1 | – | active: 1.26 µM
COc1cccc(C(c2c(O)cc(C)n(Cc3ccco3)c2=O)N2CCC(C)CC2)c1 (stereo not drawn) | – | inconclusive: 39.8 µM [inhibitor, single point]
CCCCNC(=O)c1sc(=S)n2c1[nH]c(=O)c1ccc(C(=O)NCCc3ccc(OC)c(OC)c3)cc12 | – | active: 25.1 µM
Cc1nnc(SCC(=O)NCc2ccc(N(C)C)cc2)c2nn(-c3ccccc3)c(C)c12 | – | inconclusive: 10 µM [inhibitor, partial curve, poor fit]
CN1CCc2c(sc3ncn4nc(-c5ccccc5O)nc4c23)C1 | inactive: 93.7% [at 12.7 µM] | –
COc1cc(C#N)c(NS(=O)(=O)c2ccc3[nH]c(=O)sc3c2)cc1OC | inactive: 21.3% [at 102 µM] | –
Cn1nnc2cc(C(=O)NC3CC3)ccc21 | – | inconclusive: 39.8 µM [inhibitor, single point]
Cc1ccc(CSC2=NCCN2C(=O)c2ccc([N+](=O)[O-])cc2)cc1 | – | active: 20 µM
Cc1ccc2c(c1)-c1c(c(C(=O)NCCc3ccccc3)nn1C)CS2 | inactive: 2.79% | –
Cc1cccc(CS(=O)(=O)Cc2ccc(C(=O)NC(C)c3ccccc3)o2)c1 (stereo not drawn) | – | inactive
COc1cc2c(cc1OC)CN(CC(=O)Nc1ccc(F)cc1)C(C(=O)O)C2 (stereo not drawn) | – | inconclusive: 10 µM [inhibitor, full curve, poor fit]
COc1ccc(CCN(C)C2CCCN(S(C)(=O)=O)C2)cc1OC (stereo not drawn) | – | inconclusive: 89.1 µM [inhibitor, single point]
COc1cc(/C=N\NC(=O)c2ccc(Cn3cc(Br)c([N+](=O)[O-])n3)o2)cc(OC)c1O | – | inconclusive: 39.8 µM [inhibitor, single point]
COc1ccc(NC(=O)CSc2nnc(-c3ccc(C)cc3)n2N)cc1 | – | inconclusive: 70.8 µM [inhibitor, partial curve, poor fit]
COC(=O)Cc1c(C)[nH]n(-c2cc(Cl)cc(Cl)c2)c1=O | – | active: 39.8 µM
CN(N=O)C(=O)N[C@H]1C(O)C(O)C(CO)O[C@@H]1O (stereo partly drawn) | inactive: -48.4% [at 2.33 µM] | –
Cc1ccc(C(=O)Nc2nnc(NC(=S)Nc3ccccc3)s2)cc1 | – | inconclusive: 50.1 µM [inhibitor, partial curve]
O=C1C(Cl)=C(N2CCCCCC2)C(=O)N1c1ccccc1Cl | inactive: 44.5% [at 102 µM] | –
O=[N+]([O-])c1cc(S(=O)(=O)N2CCCC2)ccc1NCCCN1CCOCC1 | – | inconclusive: 20 µM [inhibitor, partial curve, poor fit]
CCO/C(C)=C1\N=C(c2ccc(Cl)cc2)OC1=O | – | active: 44.7 µM
CN=C1S/C(=C\c2ccc(N3CCCC3)c(F)c2)C(=O)N1C | inactive: 6.63% [at 102 µM] | –
COc1cc2c(cc1OC)C(c1cc3cc(OC)c(OC)cc3[nH]c1=O)N(C(=O)C1CC1)CC2 (stereo not drawn) | inactive: -42.8% [at 102 µM] | –
Cc1ccc(S(=O)(=O)NCC(c2ccco2)N2CCN(c3ccccc3F)CC2)cc1 (stereo not drawn) | inactive: -0.949% | –

Compound | activity, negative = inhibition | Potency
CCOCCCNC(=O)c1[nH]c2cc(OC)ccc2c1Sc1ccccc1 | inactive: -39.7% | –
Cn1cnnc1SC(C(=O)c1ccccc1)c1ccccc1 (stereo not drawn) | – | inconclusive: 89.1 µM [inhibitor, single point]
COc1ccc(OC)c(-c2csc(NC(=O)CSCc3c(C)noc3C)n2)c1 | inactive: 16.1% [at 0.501 µM] | –
Cn1c(CNC(=O)c2ccc3c(c2)OCO3)nnc1SCC(=O)Nc1ccc(F)cc1 | inactive: -6.06% [at 102 µM] | –
CC(C)c1ccc(NC2CCCN(C(=O)c3ccc(Cn4cnnn4)cc3)C2)cc1 (stereo not drawn) | – | inconclusive: 50.1 µM [inhibitor, partial curve, poor fit]
CC(=O)N/N=C\c1ccccc1OC/C=C/c1ccccc1 | inactive: 59.2% [at 102 µM] | –
O=C1C(=O)N(Cc2cccnc2)C(c2cccc([N+](=O)[O-])c2)/C1=C(/O)c1ccc2c(c1)OCO2 (stereo not drawn) | – | inconclusive: 79.4 µM [inhibitor, single point]
CCCCCNS(=O)(=O)c1ccc(N2CCCCS2(=O)=O)cc1 | inactive: 6.51% [at 12.7 µM] | –
Cc1nn(CC(=O)O)c(C)c1C | – | inconclusive: 70.8 µM [inhibitor, partial curve, poor fit]
Cc1cccc(-c2nnc(SCC(=O)c3ccc(O)cc3O)n2C)c1 | – | inconclusive: 79.4 µM [inhibitor, single point]
COc1cccc2c(N/N=C/c3ccccc3)cc(C)nc12 | inactive: -40.5% | –
O=C(O)Cn1nc(C(F)(F)F)c2c1CCC2 | – | inconclusive: 79.4 µM [inhibitor, single point]
Fc1ccc(COc2ccccc2CNCc2ccncc2)cc1 | – | inconclusive: 6.31 µM [inhibitor, single point]
CCOc1c(O)ccc(C2NC(=O)NC(C)=C2C(=O)OC)c1[N+](=O)[O-] (stereo not drawn) | – | inconclusive: 50.1 µM [inhibitor, single point]
C#CCSc1nnc(-c2ccc([N+](=O)[O-])cc2)o1 | – | active: 50.1 µM
COc1ccc(OC)c(C2C(C(=O)c3cc4ccccc4o3)=C(O)C(=O)N2c2cc(C)on2)c1 (stereo not drawn) | – | inconclusive: 39.8 µM [inhibitor, single point]
CN(C)c1cccc(C(=O)n2cc(C(=O)c3cc(F)ccc3O)cn2)c1 | – | inconclusive: 70.8 µM [inhibitor, partial curve]
CC(Oc1ccc(S(=O)(=O)N2CCCC2)cc1[N+](=O)[O-])C(=O)N(C)c1ccccc1 (stereo not drawn) | inactive: -11.6% [at 2.33 µM] | –
O=C(NCCCN1CCOCC1)c1ccccc1 | – | active: 14.1 µM
N#CC1(NC(=O)Cn2ncc(Cl)c(Cl)c2=O)CCCCC1 | – | inconclusive: 6.31 µM [inhibitor, partial curve, poor fit]
COc1cccc([C@@H]2Nc3ccc(C(=O)O)cc3[C@@H]3C=CC[C@@H]32)c1OC | – | inconclusive: 39.8 µM [inhibitor, partial curve, poor fit]
Cc1cc(C)cc(NC(=O)C(=O)NCC2CCCN2S(=O)(=O)c2cccs2)c1 (stereo not drawn) | inactive: 9.59% [at 0.501 µM] | –
O=C(C1CCN(S(=O)(=O)c2ccccc2)CC1)N(CCc1ccccc1)Cc1ccco1 | – | inconclusive: 22.4 µM [inhibitor, full curve]
CC(C)(C)NC(=O)Cn1c(=O)oc2cc(S(=O)(=O)N3CCc4ccccc43)ccc21 | – | inconclusive: 79.4 µM [inhibitor, single point]
CS(=O)(=O)N1CCN(c2ccc(NC(=O)c3ccc([N+](=O)[O-])o3)cc2)CC1 | – | inconclusive: 44.7 µM [inhibitor, partial curve]

Compound | activity, negative = inhibition | Potency
O=C(NC1CC1)c1ccc(Cn2c(SCc3ccccc3F)nc3cccnc32)cc1 | inactive: 1.1% | –
Fc1ccc(/C=N/c2c(-c3ccc(F)cc3)nc3n2CCS3)cc1 | – | inconclusive: 79.4 µM [inhibitor, single point]
N#Cc1nc(-c2cccs2)oc1NCc1ccccc1Cl | – | inconclusive: 22.4 µM [inhibitor, partial curve, poor fit]
O=P(O)(O)c1ccccc1OCCCCCOc1ccccc1P(=O)(O)O | – | inconclusive: 14.1 µM [inhibitor, single point]
COc1ccc(N2Cc3ccccc3C2=NC(=O)c2cccc([N+](=O)[O-])c2)cc1 | – | active: 20 µM
COc1ccc(N=Nc2nc3cc(Br)c(Br)cc3n2C)c(OC)c1 | – | inconclusive: 1.78 µM [inhibitor, full curve, poor fit]
Cn1c(SCC(=O)O)nc2sc3c(c2c1=O)CCC3 | inactive: -4.72% | –
O=S(=O)(/N=C(/Nc1nc2ccccc2s1)c1ccccc1)c1ccc(F)cc1 | – | inconclusive: 63.1 µM [inhibitor, partial curve, poor fit]
NC1=NC(=Nc2ccc(Br)cc2)c2ccccc21 | – | inconclusive: 35.5 µM [inhibitor, single point]
Cc1nn(CCC(=O)NCc2ccc(N(C)C)cc2)c(=O)c2nn(-c3ccccc3)c(C)c12 | – | active: 44.7 µM
Cc1ccc(N2CC(NC(=O)c3ccc(Br)o3)CC2=O)cc1C (stereo not drawn) | inactive: 6.36% | –
O=C(COc1ccccc1)NNc1c2ccccc2nc2ccccc12 | inactive: 33.3% [at 0.501 µM] | –
CCOC(=O)N1CCc2c(sc3c2C(=O)NC(c2ccccc2)N3)C1 (stereo not drawn) | inconclusive: -74.9% [inhibitor] | –
N#Cc1c(C(F)(F)F)cc(-c2ccc(Cl)c(Cl)c2)nc1SCCN1CCOCC1 | – | active: 56.2 µM
Cc1ccc(SCCC(=O)OC(C(=O)NC(N)=O)C(C)C)cc1 (stereo not drawn) | – | inconclusive: 35.5 µM [inhibitor, partial curve, poor fit]
Cc1csc(NC(=O)CSc2nc3ccccc3c(=O)[nH]2)n1 | inactive: 26.4% | –
O=C(Nc1ccc(N2CCCC2)cc1)c1cccc(F)c1 | – | inconclusive: 1 µM [inhibitor, partial curve, poor fit]
COc1ccc(N2CCN(CC(O)COc3ccc(C(C)C)c(C)c3)CC2)cc1 (stereo not drawn) | – | active: 6.31 µM
Cc1n[nH]c(=O)c2c(NC(=O)CSc3nn(-c4ccc(F)cc4)c(=S)s3)oc(C)c12 | inactive: 17.1% [at 2.33 µM] | –
Cc1ccc(C)c(N=C2CCCN2Cc2ccccc2)c1C#N | inactive: 32.1% | –
COc1ccc2nc3oc(C(=O)N(C)c4ccc(Cl)cc4)cc3cc2c1 | inactive: -23.6% | –
N#C/C(=C/c1ccc(F)cc1)c1nnc(NC(=O)c2ccccc2)s1 | inactive: 33.4% | –
CN(C)C(=O)CNc1n[nH]c(=S)[nH]c1=O | inactive: -1.98% [at 102 µM] | –
